# Laboratory results taken from ChEMBL document CHEMBL1201862, “PubChem BioAssay data set” (2004).
# Test system: NCI-H322M
# Assay: NCI anticancer screen, dose series, 48 h
row,Structure (SMILES),GI50
1,c1ccc(-c2sc(-c3ccccc3)c3c2C2CCC3C2)cc1,inactive: 52.1 µM
2,O=C(c1nsc(Cl)c1Cl)N1CCCCC1,inactive: > 100 µM
3,O=C(NO)c1ccc([N+](=O)[O-])cc1,inactive: 42.3 µM
4,Cc1ccc(/N=N/c2c(O)ccc3ccccc23)c(C)c1,inactive: > 100 µM
5,COc1ccc2oc(-c3ccncc3)cc(=O)c2c1,inactive: > 100 µM
6,CC(=O)NC1=C(C)C(=O)c2c(nc3n2CCC3OC(=O)CCl)C1=O (configuration not stated),inactive: 17.4 µM
7,COC(=O)C(C(=O)C(=O)NC1Nc2ccc(C)cc2S1)c1nc2ccc(Cl)cc2nc1O (configuration not stated),inactive: > 100 µM
8,CC(=O)OCC1OC(SC2=N/C(=C\c3ccc(Br)s3)C(=O)N2c2ccccc2)C(OC(C)=O)C(OC(C)=O)C1OC(C)=O (configuration not stated),inactive: 81.7 µM and inactive: 77.8 µM
9,C[Si](C)(C)C1(Sc2ccccc2)SCCCS1,inactive: 44.2 µM
10,N#Cc1nn(-c2ccc(Cl)cc2)c(=N)c2c(N)n3nc(-c4ccccc4)cc3nc12,active: 1 µM
11,Cc1nc(-n2nc(-c3ccccc3)cc2-c2ccccc2)sc1C(/C=C\c1ccc([N+](=O)[O-])cc1)=N/NC(=S)NN,inactive: > 54.1 µM
12,CCOC(=O)/C(=C/c1ccc[nH]1)P(=O)(OCC)OCC,inactive: > 100 µM
13,CCC(=C(c1ccc(OCc2ccccc2)cc1)c1ccc(OCc2ccccc2)cc1)c1ccc(OC)cc1,inactive: > 100 µM
14,CC(=O)n1nc(-c2ccccc2)n(/N=C/c2ccc([N+](=O)[O-])o2)c1=O,inactive: 1.67 µM
15,CC(C)(C)OC(=O)C1/C(=C/CO)CN1C(=O)OC(C)(C)C (configuration not stated),inactive: > 100 µM
16,COc1cc2ccc(CC#N)cc2cc1OC,inactive: > 100 µM
17,Oc1c(-c2ccccc2)sc2ccccc12,inactive: 19.8 µM
18,COc1cc(C2SCC(=O)N2c2ccccn2)cc(OC)c1OC (configuration not stated),inactive: > 100 µM
19,COc1ccc2nc3cc(Cl)ccc3c(NCCCN(Cc3cc(OC)c(OC)c(OC)c3)Cc3cc(OC)c(OC)c(OC)c3)c2c1,inactive: 11.3 µM
20,Fc1ccc(Nc2nnc(-c3ccccn3)s2)cc1,inactive: > 100 µM
21,O=C1C2C(C(=O)N1O)N(Cc1ccccc1)C(=O)N2Cc1ccccc1 (configuration not stated),inactive: > 100 µM
22,O=C(Nc1ccc2ccccc2c1)c1cc2cc(CCl)ccc2oc1=O,inactive: > 100 µM
23,[N-]=[N+]=Nc1c(Cl)c(=O)n(-c2ccccc2)c2ccccc12,inactive: 24.8 µM

row,Structure (SMILES),GI50
1,O=C(/C=C/c1c(O)ccc2ccccc12)c1cccc(O)c1,inactive: > 100 µM
2,CC1OC(n2cc(Cl)c(=O)[nH]c2=O)C=C(OC(=O)c2ccccc2)C1=O (configuration not stated),inactive: > 100 µM
3,CC1=C(C(N)=O)C(c2ccncc2)C(C#N)=C2SCC(=O)N12 (configuration not stated),inactive: > 100 µM
4,NC(=O)NNC(=O)c1nc[nH]c1[N+](=O)[O-],inactive: > 100 µM
5,Cc1ccc(S(=O)(=O)NC(=O)NC(C(=O)O)C(C)O)cc1 (configuration not stated),inactive: > 100 µM
6,NC1CCCCC1.O=P(O)(O)C(O)/C=C/c1ccccc1 (configuration not stated),inactive: > 100 µM
7,Cc1cc(N(CCC#N)S(=O)(=O)c2ccccc2)ccc1/C=C1\N=C(c2ccc(Cl)cc2)OC1=O,inactive: > 100 µM
8,CN(c1ccccc1)c1cc2ccccc2nn1,inactive: > 100 µM
9,C/C(=N\NC(=N)N)C(CN(C)C)C(c1ccccc1)c1c(O)c2ccccc2oc1=O (configuration not stated),inactive: > 100 µM
10,Cc1ccc(C(=O)NN=C(/N=N/c2cccc(C)c2)c2ccc(N(C)C)cc2)cc1,inactive: > 100 µM
11,O=C1COC(c2ccccc2O)=NN1CCCN1CCCC1,inactive: > 100 µM
12,CN(O)C(=O)Cc1ccccc1,inactive: > 100 µM
13,NC(=S)Nc1nnc(-c2ccc(-c3nnc(NC(N)=S)o3)cc2)o1,inactive: > 100 µM
14,Cc1ccc(S(=O)(=O)Nn2c(O)c(C#N)c(-c3ccc([N+](=O)[O-])cc3)c(C#N)c2=O)cc1,inactive: > 100 µM
15,COc1ccc(/C=C2/C[N+](C)(C)C/C(=C/c3ccc(OC)cc3)C2=O)cc1,inactive: > 100 µM
16,CC(C)(C)C(=O)OCC1CCC[N+]2(C)CCCCC12 (configuration not stated),inactive: > 100 µM
17,CN1C2=Nc3n(C)c4ccccc4[n+]3CN2c2ccccc21,inactive: 71.1 µM
18,COC(=O)[C@@H]1C[C@H]([Se]c2ccccc2)CN1C(=O)OCc1ccccc1,inactive: > 100 µM
19,CC(=O)OC1CC[C@@]2(C)C(=CC[C@@H]3[C@@H]2CC[C@]2(C)Nc4c(cnn4-c4ccc(F)cc4)C[C@@H]32)C1 (some centres not stated),inactive: 14 µM
20,S=C(Nc1ccc(Br)cn1)NC12CC3CC(CC(C3)C1)C2,inactive: 15.5 µM
21,COc1ccc(C2C=C(c3ccc(C)cc3)N(c3ccc(OC)cc3[N+](=O)[O-])C3C(=O)OC(=O)C23)c(OC)c1 (configuration not stated),inactive: 30.1 µM
22,COC(=O)c1ccc(C)cc1CC1Cc2ccc(C)cc2C1=O (configuration not stated),inactive: 35.1 µM
23,Cc1ccc(C2NC(=N)NC3=C2CCOc2c3ccc3ccccc23)cc1 (configuration not stated),inactive: 38.6 µM

row,Structure (SMILES),GI50
1,O=C(CC(=O)N1N=C(N2CCCCC2)CC1c1ccccc1)Nc1ccc(Cl)cc1 (configuration not stated),inactive: > 100 µM
2,O=C1/C(=C\Oc2ccc(F)cc2)N2CCC1CC2,inactive: 62.8 µM
3,c1ccc(Nc2nnc(-c3ccccc3Nc3ccccc3-c3nnc(Nc4ccccc4)s3)s2)cc1,inactive: > 100 µM
4,Cc1cc(C)n(CN(Cn2nc(C)cc2C)c2ccccc2)n1,inactive: > 100 µM
5,Cc1ccc([N+](=O)[O-])cc1S(=O)(=O)Nc1ccc(C2=NN(c3ccc([N+](=O)[O-])cc3[N+](=O)[O-])C(c3ccccc3O)C2)cc1 (configuration not stated),inactive: 52.4 µM
6,CC(=O)OC(C)(C)CCC(=O)[C@](C)(O)[C@H]1[C@H](O)C[C@@]2(C)[C@@H]3CC=C4C(C)=C(OC5OC(CO)C(O)C(O)C5O)C(=O)C[C@@H]4[C@]3(C)C(=O)C[C@]12C (some centres not stated),inactive: > 100 µM
7,CCOC(=O)C1=C(C)N(c2ccc(Cl)cc2)C2(O)C=CC(Nc3ccc(Cl)cc3)=C3C(=O)N(c4ccccc4)C(=O)C312 (configuration not stated),inactive: 16.1 µM
8,O=C1c2ccccc2-c2c1c1ccccc1c(=O)n2Cc1ccco1,inactive: > 100 µM
9,C=CCC1(O)c2ccccc2C(=O)c2c(O)ccc(O)c21 (configuration not stated),inactive: 19 µM
10,COc1ccc(S(=O)(=O)N/N=C/CN2C(=O)c3ccccc3C2=O)cc1,inactive: > 100 µM
11,C/C(=N\Nc1ncnc2ccccc12)c1ccccn1,active: < 0.0193 µM
12,Cc1nn(C(=O)Cc2ccccc2)c2c1C(c1ccc(Cl)cc1)SC(=N)N2 (configuration not stated),inactive: > 100 µM
13,C=CCNC(=O)NNC(O)(C(=O)OCC)C(F)(F)F (configuration not stated),inactive: > 100 µM
14,CC1=NN(c2cccc(S(=O)(=O)O)c2)C2(C1)C(Cl)C(=O)N2c1nc2ccccc2s1 (configuration not stated),inactive: 13.4 µM
15,O=C(O)C1C(=O)Oc2c(cccc2[N+](=O)[O-])C1O (configuration not stated),inactive: > 100 µM
16,C=C1C[C@@H]2O[C@H]3[C@H]4[C@@H](C[C@@H](C)[C@@H](OC(C)=O)[C@H]42)[C@@H](C)CO[C@@]3(C)[C@H](OC(=O)CCCCCCC)C[C@H]1O,inactive: 17.7 µM
17,Cc1nc(Nc2ccccc2Cl)sc1C(=O)CC(=O)C(=O)Nc1c(Cl)cccc1Cl,inactive: 38.8 µM
18,C#CCNC(CS)C(=O)O (configuration not stated),inactive: > 100 µM
19,NC(=S)Nc1c(S(N)(=O)=O)cc(S(N)(=O)=O)c(Cl)c1Cl,inactive: > 100 µM
20,C=C1C[C@]23CC[C@@H]4C(CO)(CO)CC(=O)C[C@]4(C)[C@@H]2C(O)C[C@H]1C3 (some centres not stated),inactive: > 100 µM
21,O=C1CCSC(=S)N1c1ccc(Br)c(Cl)c1,inactive: 35.2 µM
22,CCCC1(NC(=O)C(F)(F)F)CC(OC)OC2COC(c3ccccc3)OC21 (configuration not stated),inactive: > 100 µM
23,CN(C)C(=S)OC(Cn1cncn1)c1ccc(Cl)cc1Cl (configuration not stated),inactive: > 100 µM

row,Structure (SMILES),GI50
1,CC1C2CC(C(S(=O)(=O)O)C2=O)C1(C)C (configuration not stated),inactive: > 100 µM
2,CC(Cl)(CCC(Cl)C(C)(C)Cl)C(=O)CBr (configuration not stated),inactive: 22.7 µM
3,CCCc1cc(=O)oc2c3c(c4c(c12)OC(C)(C)CC4)O[C@@H](C)[C@H](C)[C@H]3O,inactive: 19.9 µM
4,O=C1C(c2ccccc2)=[N+]([O-])c2cc([N+](=O)[O-])c(/C(Cl)=C/c3ccccc3)cc21,inactive: 54.5 µM
5,Cc1ccc(NC(=O)CSc2nc(C)nc3c2sc(=S)n3-c2ccccc2)cc1,inactive: > 10 µM
6,O=C(O)C(O)c1ccc(F)cc1 (configuration not stated),inactive: > 100 µM
7,CCOC(=O)NC(Nc1ccc(C(=O)O)cc1)(C(F)(F)F)C(F)(F)F,inactive: > 100 µM
8,Cc1cc(Cl)cc2c1NC(=O)C2(O)C(C)C(=O)c1ccc(Cl)cc1 (configuration not stated),inactive: > 80.2 µM
9,CCOc1c2c(cc3c1C(=O)c1c(OC)cccc1C3=O)C=C(OC)CC2,inactive: > 25 µM
10,Cc1c2cc[n+](COC(=O)c3ccccc3)cc2c(C)c2c1[nH]c1ccccc12,active: 0.449 µM
11,CN(C)/C=C(\C(=O)c1ccccc1)n1nc(-c2ccccc2)cc1-c1ccccc1,inactive: > 10 µM
12,Cc1cccc(NC(Nc2cccc(C)c2)=C(C(Cl)=C(Cl)Cl)[N+](=O)[O-])c1,inactive: 23.7 µM
13,CC(NC(=O)NC(C)(C)C)NC(=O)C(N)CC(=O)O (configuration not stated),inactive: > 100 µM
14,N=C(N)SCCc1cn2ccccc2n1,inactive: > 100 µM
15,c1ccc2[nH]c(-c3nc4ccccc4o3)nc2c1,inactive: > 100 µM
16,O=[N+]([O-])c1nccn1COCCO,inactive: > 100 µM
17,CC1(C)SC2C(NC(=O)C(C(=O)O)c3ccccc3)C(=O)N2C1C(=O)O (configuration not stated),inactive: > 100 µM
18,CC1(Cl)CCC2(CC(Br)=CC3OC32C)CC1Br (configuration not stated),inactive: 43.2 µM
19,CC(C)=CCC/C(=C/CC/C(=C\CCc1ccoc1)C(=O)O)C(=O)O,inactive: > 100 µM
20,c1ccc([P+](CCCCCCCC[P+](c2ccccc2)(c2ccccc2)c2ccccc2)(c2ccccc2)c2ccccc2)cc1,inactive: 31.5 µM
21,CC1(C)C(=NNC(=O)C[N+](C)(C)C)C(C)(C)C1=NNC(=O)C[N+](C)(C)C,inactive: > 100 µM
22,CNc1cccc(-c2cc(O)c3cc4c(cc3n2)OCO4)c1,active: 0.526 µM
23,Cc1ccc(NC(=O)c2cccc([N+](=O)[O-])c2O)c([N+](=O)[O-])c1,inactive: 19.8 µM

# Where “and” joins values, the source holds several entries; their conditions need not be identical. Equal entries are not always repeated.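 The compound was tested at five concentrations on cells cultured in 96-well plates, with a 48-hour exposure period. GI50 = concentration required for 50% inhibition of growth.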 Calls of active or inactive are those of the source. Rule as the data show it: active = GI50 up to about 1.1 µM and inactive = higher.
